{"source": "the supplement of paper PMC8728848", "binders": {"B1": {"name": "SSP1 (Sclerotinia sclerotiorum), XP_001584968 (protein)", "chain": "MGSSHHHHHHSSGLVPRGSHMSLLTTELACTSAPDQVLHLFFQDGQNILEARSPDGGNVWTTQDTIIAKDGDYNGSSMTCYYVDKDANFDNQPSIHLLYMNKDKQLTEKVKRMKGDNPIWEDAKVPDEVRKGPEQYSKLTSGSFNQGTGWNPNGSQWAYFSASKDGKMGIVEIRRTPKDPWHTETILEEKWGDELPGTALACVIGNGKIRVFLQHHDYSIILYENQNNTWHDRGTFIPKDKVQATTPLACTMTKDGSVHLFYVSKSNKIIHCTDGKKEEELINFFPGSKLGATSVENKITLFFRNLNPVNEVGTLENENGSWKHGTTVIPA"}}, "assay_in_all_cases": "glycan array binding signal (z-score within array); higher = stronger binding", "settings_in_all_cases": "glycan notation: IUPAC condensed, linker removed", "key": {"[1]": {"target": "Gal(b1-3)GlcNAc(b1-2)Man(a1-3)[Gal(b1-3)GlcNAc(b1-2)Man(a1-6)]Man(b1-4)GlcNAc(b1-4)GlcNAc", "how_it_was_run": "(§1)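 The binding signal is a Z-score computed within each array and averaged over linkers. Arrays of the same protein sequence at different concentrations or buffers were also averaged together. Data originate from 3228 arrays in the Consortium for Functional Glycomics database, kept only where the protein sequence was available.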"}, "[2]": {"target": "Gal(b1-3)GlcNAc(b1-2)Man(a1-3)[Gal(b1-3)GlcNAc(b1-2)Man(a1-6)]Man(b1-4)GlcNAc(b1-4)[Fuc(a1-6)]GlcNAc", "how_it_was_run": "as §1"}, "[3]": {"target": "Gal(b1-3)GlcNAc(b1-2)Man(a1-3)[GlcNAc(b1-4)][Gal(b1-3)GlcNAc(b1-2)Man(a1-6)]Man(b1-4)GlcNAc(b1-4)GlcNAc", "how_it_was_run": "as §1"}, "[4]": {"target": "Gal(b1-3)GlcNAc(b1-2)[Gal(b1-3)GlcNAc(b1-6)]Man(a1-6)[Gal(b1-3)GlcNAc(b1-2)Man(a1-3)]Man(b1-4)GlcNAc(b1-4)GlcNAc", "how_it_was_run": "as §1"}, "[5]": {"target": "Gal(b1-3)GlcNAc(b1-3)Gal(b1-3)GlcNAc", "how_it_was_run": "as §1"}, "[6]": {"target": "Gal(b1-3)GlcNAc(b1-3)Gal(b1-4)Glc", "how_it_was_run": "as §1"}, "[7]": {"target": "Gal(b1-3)GlcNAc(b1-3)Gal(b1-4)GlcNAc", "how_it_was_run": "as §1"}, "[8]": {"target": "Gal(b1-3)GlcNAc(b1-3)Gal(b1-4)GlcNAc(b1-2)Man(a1-3)[Gal(b1-3)GlcNAc(b1-3)Gal(b1-4)GlcNAc(b1-2)Man(a1-6)]Man(b1-4)GlcNAc(b1-4)GlcNAc", "how_it_was_run": "as §1"}, "[9]": {"target": "Gal(b1-3)GlcNAc(b1-3)Gal(b1-4)GlcNAc(b1-2)[Gal(b1-3)GlcNAc(b1-3)Gal(b1-4)GlcNAc(b1-6)]Man(a1-6)[Gal(b1-3)GlcNAc(b1-3)Gal(b1-4)GlcNAc(b1-2)Man(a1-3)]Man(b1-4)GlcNAc(b1-4)[Fuc(a1-6)]GlcNAc", "how_it_was_run": "as §1"}, "[10]": {"target": "Gal(b1-3)GlcNAc(b1-3)Gal(b1-4)GlcNAc(b1-3)Gal(b1-4)GlcNAc(b1-2)[Gal(b1-3)GlcNAc(b1-3)Gal(b1-4)GlcNAc(b1-3)Gal(b1-4)GlcNAc(b1-6)]Man(a1-6)[Gal(b1-3)GlcNAc(b1-3)Gal(b1-4)GlcNAc(b1-3)Gal(b1-4)GlcNAc(b1-2)Man(a1-3)]Man(b1-4)GlcNAc(b1-4)[Fuc(a1-6)]GlcNAc", "how_it_was_run": "as §1"}, "[11]": {"target": "Gal(b1-3)GlcNAc(b1-3)Gal(b1-4)GlcNAc(b1-6)[Gal(b1-3)GlcNAc(b1-3)]Gal(b1-4)Glc", "how_it_was_run": "as §1"}, "[12]": {"target": "Gal(b1-3)GlcNAc(b1-3)Gal(b1-4)[Fuc(a1-3)]GlcNAc", "how_it_was_run": "as §1"}, "[13]": {"target": "Gal(b1-3)GlcNAc(b1-3)Gal(b1-4)[Fuc(a1-3)]GlcNAc(b1-6)[Gal(b1-3)GlcNAc(b1-3)]Gal(b1-4)Glc", "how_it_was_run": "as §1"}, "[14]": {"target": "Gal(b1-3)GlcNAc(b1-3)GalNAc", "how_it_was_run": "as §1"}, "[15]": {"target": "Gal(b1-3)GlcNAc(b1-6)Gal(b1-4)GlcNAc", "how_it_was_run": "as §1"}, "[16]": {"target": "Gal(b1-3)GlcNAc(b1-6)GalNAc", "how_it_was_run": "as §1"}, "[17]": {"target": "Gal(b1-3)GlcNAc(b1-6)[Gal(b1-3)]GalNAc", "how_it_was_run": "as §1"}, "Gal(b1-3)GlcNAc6S": {"target": "Gal(b1-3)GlcNAc6S", "how_it_was_run": "as §1"}, "[18]": {"target": "Gal(b1-3)[Fuc(a1-4)]GlcNAc", "how_it_was_run": "as §1"}, "[19]": {"target": "Gal(b1-3)[Fuc(a1-4)]GlcNAc(b1-2)Man", "how_it_was_run": "as §1"}, "[20]": {"target": "Gal(b1-3)[Fuc(a1-4)]GlcNAc(b1-2)Man(a1-3)[Gal(b1-3)[Fuc(a1-4)]GlcNAc(b1-2)Man(a1-6)]Man(b1-4)GlcNAc(b1-4)[Fuc(a1-6)]GlcNAc", "how_it_was_run": "as §1"}, "[21]": {"target": "Gal(b1-3)[Fuc(a1-4)]GlcNAc(b1-3)Gal(b1-3)[Fuc(a1-4)]GlcNAc", "how_it_was_run": "as §1"}, "[22]": {"target": "Gal(b1-3)[Fuc(a1-4)]GlcNAc(b1-3)Gal(b1-4)[Fuc(a1-3)]GlcNAc", "how_it_was_run": "as §1"}, "[23]": {"target": "Gal(b1-3)[Fuc(a1-4)]GlcNAc(b1-6)GalNAc", "how_it_was_run": "as §1"}, "[24]": {"target": "Gal(b1-3)[GlcNAc(b1-6)]GalNAc", "how_it_was_run": "as §1"}, "[25]": {"target": "Gal(b1-3)[Neu5Ac(a2-6)]GalNAc", "how_it_was_run": "as §1"}, "[26]": {"target": "Gal(b1-3)[Neu5Ac(a2-6)]GlcNAc(b1-4)Gal(b1-4)Glc", "how_it_was_run": "as §1"}, "[27]": {"target": "Gal(b1-3)[Neu5Ac(b2-6)]GalNAc", "how_it_was_run": "as §1"}, "Gal(b1-4)Gal": {"target": "Gal(b1-4)Gal", "how_it_was_run": "as §1"}, "[28]": {"target": "Gal(b1-4)GalNAc(a1-3)[Fuc(a1-2)]Gal(b1-4)GlcNAc", "how_it_was_run": "as §1"}, "[29]": {"target": "Gal(b1-4)GalNAc(b1-3)[Fuc(a1-2)]Gal(b1-4)GlcNAc", "how_it_was_run": "as §1"}, "Gal(b1-4)Glc": {"target": "Gal(b1-4)Glc", "how_it_was_run": "as §1"}, "Gal(b1-4)Glc6S": {"target": "Gal(b1-4)Glc6S", "how_it_was_run": "as §1"}, "Gal(b1-4)GlcNAc": {"target": "Gal(b1-4)GlcNAc", "how_it_was_run": "as §1"}, "[30]": {"target": "Gal(b1-4)GlcNAc(a1-6)Gal(b1-4)GlcNAc", "how_it_was_run": "as §1"}, "Gal(b1-4)GlcNAc(b1-2)Man": {"target": "Gal(b1-4)GlcNAc(b1-2)Man", "how_it_was_run": "as §1"}, "[31]": {"target": "Gal(b1-4)GlcNAc(b1-2)Man(a1-3)Man(b1-4)GlcNAc(b1-4)GlcNAc", "how_it_was_run": "as §1"}}, "note": "Some of the results follow."}
{"binder": "B1", "values": [{"measurement": "glycan array binding signal (z-score)", "setting": "[1]", "value": 1.07}, {"measurement": "glycan array binding signal (z-score)", "setting": "[2]", "value": 5.12}, {"measurement": "glycan array binding signal (z-score)", "setting": "[3]", "value": -0.377}, {"measurement": "glycan array binding signal (z-score)", "setting": "[4]", "value": -0.073}, {"measurement": "glycan array binding signal (z-score)", "setting": "[5]", "value": -0.401}, {"measurement": "glycan array binding signal (z-score)", "setting": "[6]", "value": -0.397}, {"measurement": "glycan array binding signal (z-score)", "setting": "[7]", "value": 0.056}, {"measurement": "glycan array binding signal (z-score)", "setting": "[8]", "value": -0.174}, {"measurement": "glycan array binding signal (z-score)", "setting": "[9]", "value": 0.163}, {"measurement": "glycan array binding signal (z-score)", "setting": "[10]", "value": 0.7}, {"measurement": "glycan array binding signal (z-score)", "setting": "[11]", "value": -0.487}, {"measurement": "glycan array binding signal (z-score)", "setting": "[12]", "value": -0.451}, {"measurement": "glycan array binding signal (z-score)", "setting": "[13]", "value": -0.483}, {"measurement": "glycan array binding signal (z-score)", "setting": "[14]", "value": -0.435}, {"measurement": "glycan array binding signal (z-score)", "setting": "[15]", "value": -0.416}, {"measurement": "glycan array binding signal (z-score)", "setting": "[16]", "value": -0.244}, {"measurement": "glycan array binding signal (z-score)", "setting": "[17]", "value": -0.309}, {"measurement": "glycan array binding signal (z-score)", "setting": "Gal(b1-3)GlcNAc6S", "value": 0.261}, {"measurement": "glycan array binding signal (z-score)", "setting": "[18]", "value": -0.31}, {"measurement": "glycan array binding signal (z-score)", "setting": "[19]", "value": -0.358}, {"measurement": "glycan array binding signal (z-score)", "setting": "[20]", "value": -0.08}, {"measurement": "glycan array binding signal (z-score)", "setting": "[21]", "value": -0.061}, {"measurement": "glycan array binding signal (z-score)", "setting": "[22]", "value": -0.417}, {"measurement": "glycan array binding signal (z-score)", "setting": "[23]", "value": 0.053}, {"measurement": "glycan array binding signal (z-score)", "setting": "[24]", "value": -0.142}, {"measurement": "glycan array binding signal (z-score)", "setting": "[25]", "value": -0.504}, {"measurement": "glycan array binding signal (z-score)", "setting": "[26]", "value": -0.303}, {"measurement": "glycan array binding signal (z-score)", "setting": "[27]", "value": -0.441}, {"measurement": "glycan array binding signal (z-score)", "setting": "Gal(b1-4)Gal", "value": -0.262}, {"measurement": "glycan array binding signal (z-score)", "setting": "[28]", "value": -0.662}, {"measurement": "glycan array binding signal (z-score)", "setting": "[29]", "value": -0.139}, {"measurement": "glycan array binding signal (z-score)", "setting": "Gal(b1-4)Glc", "value": -0.078}, {"measurement": "glycan array binding signal (z-score)", "setting": "Gal(b1-4)Glc6S", "value": -0.189}, {"measurement": "glycan array binding signal (z-score)", "setting": "Gal(b1-4)GlcNAc", "value": -0.446}, {"measurement": "glycan array binding signal (z-score)", "setting": "[30]", "value": -0.499}, {"measurement": "glycan array binding signal (z-score)", "setting": "Gal(b1-4)GlcNAc(b1-2)Man", "value": 0.011}, {"measurement": "glycan array binding signal (z-score)", "setting": "[31]", "value": 0.145}]}
